As usually defined, the MIC is the smallest concentration in the dilution series that meets the test's criterion for growth inhibition.

For eleven molecules, MIC results are on record in PMC4440778, “Structure-Activity Relationship and Mode of Action of a Frog Secreted Antibacterial Peptide B1CTcu5 Using Synthetically and Modularly Modified or Deleted (SMMD) Peptides” (PLoS ONE, 2015).

≈ marks a conversion by molar mass, not a printed value. Where a SMILES comes first, the peptide text is derived from it. Bridges are numbered along the chain shown (N, C = ends). Where no end group is shown, it is not given here. [ ]: non-standard residue; d: D form. The star is where a group is joined. Acm = CC(=O)NC* Some results are limits rather than exact numbers.

Test [1] concerns MRSA ATCC 43300. Conditions: LB broth, 10^6 CFU/ml, 24 h 37°C, OD600, 100% growth inhibition, triplicate.
Test [2] concerns VRE ATCC 29212. As to conditions: LB broth, 10^6 CFU/ml, 24 h 37°C, OD600, 100% growth inhibition, triplicate.

Take `CC[C@H](C)[C@@H]1NC(=O)[C@H](CCCCN)NC(=O)[C@@H](NC(=O)[C@H](CC(C)C)NC(=O)[C@@H](NC(=O)[C@H](CCC(N)=O)NC(=O)[C@@H]2CCCN2C(=O)[C@H](CC(C)C)NC(=O)[C@H](Cc2ccccc2)NC(=O)[C@H](CC(N)=O)NC(=O)[C@H](C)NC(=O)[C@H](C)NC(=O)[C@H](CC(C)C)NC(=O)CNC(=O)[C@H](C)NC(=O)[C@@H](NC(=O)[C@@H](N)Cc2c[nH]cn2)[C@@H](C)CC)[C@@H](C)CC)CSSC[C@@H](C(N)=O)NC(=O)[C@H](CCCCN)NC(=O)[C@H](CCCNC(=N)N)NC(=O)[C@H](C)NC1=O` [B1CTcu5H] (H-HIAGLAANFLPQILCKIARKC-NH2; disulfide 15-21): the MIC in test [1] was 100 µg/mL (≈ 43.9 µM).

For `CC[C@H](C)[C@@H]1NC(=O)[C@H](CCCCN)NC(=O)[C@@H](NC(=O)[C@H](CC(C)C)NC(=O)[C@@H](NC(=O)[C@H](CCC(N)=O)NC(=O)[C@@H]2CCCN2C(=O)[C@H](CC(C)C)NC(=O)[C@H](Cc2ccccc2)NC(=O)[C@H](CC(N)=O)NC(=O)[C@H](C)NC(=O)[C@H](C)NC(=O)[C@H](CC(C)C)NC(=O)CNC(=O)[C@H](C)NC(=O)[C@@H](NC(=O)[C@@H](N)CCCNC(=N)N)[C@@H](C)CC)[C@@H](C)CC)CSSC[C@@H](C(N)=O)NC(=O)[C@H](CCCCN)NC(=O)[C@H](CCCNC(=N)N)NC(=O)[C@H](C)NC1=O` [B1CTcu5R] (H-RIAGLAANFLPQILCKIARKC-NH2; disulfide 15-21), the MIC is 50 µg/mL (≈ 21.8 µM) in test [2] and 25 µg/mL (≈ 10.9 µM) in test [1].

On to `CC[C@H](C)[C@@H]1NC(=O)[C@H](CCCCN)NC(=O)[C@@H](NC(=O)[C@H](CC(C)C)NC(=O)[C@@H](NC(=O)[C@H](CCC(N)=O)NC(=O)[C@@H]2CCCN2C(=O)[C@H](CC(C)C)NC(=O)[C@H](Cc2ccccc2)NC(=O)[C@H](CC(N)=O)NC(=O)[C@H](C)NC(=O)[C@H](C)NC(=O)[C@H](CC(C)C)NC(=O)CNC(=O)[C@H](C)NC(=O)[C@@H](NC(=O)[C@@H](N)CCCCN)[C@@H](C)CC)[C@@H](C)CC)CSSC[C@@H](C(N)=O)NC(=O)[C@H](CCCCN)NC(=O)[C@H](CCCNC(=N)N)NC(=O)[C@H](C)NC1=O` [B1CTcu5K] (H-KIAGLAANFLPQILCKIARKC-NH2; disulfide 15-21), for which the MIC is 50 µg/mL (≈ 22 µM) in test [2] and above 100 µg/mL in test [1].

As for `CC[C@@H](C)[C@@H](NC(=O)[C@H](N)CC(C)C)C(=O)N[C@H](C)C(=O)NCC(=O)N[C@H](CC(C)C)C(=O)N[C@H](C)C(=O)N[C@H](C)C(=O)N[C@H](CC(N)=O)C(=O)N[C@H](Cc1ccccc1)C(=O)N[C@H](CC(C)C)C(=O)N1CCC[C@@H]1C(=O)N[C@H](CCC(N)=O)C(=O)N[C@@H](C(=O)N[C@H](CC(C)C)C(=O)N[C@@H]1CSSC[C@H](C(N)=O)NC(=O)[C@@H](CCCCN)NC(=O)[C@@H](CCCNC(=N)N)NC(=O)[C@@H](C)NC(=O)[C@@H]([C@H](C)CC)NC(=O)[C@@H](CCCCN)NC1=O)[C@H](C)CC` [DB1CTcu5] (H-[dL][dI][dA]G[dL][dA][dA][dN][dF][dL][dP][dQ][dI][dL][dC][dK][dI][dA][dR][dK][dC]-NH2; disulfide 15-21), the values for the MIC in test [2] and in test [1] were 50 µg/mL (≈ 22.2 µM) and 25 µg/mL (≈ 11.1 µM), respectively.

In the case of `CC[C@H](C)[C@H](NC(=O)[C@H](CCCCN)NC(=O)[C@H](CSCNC(C)=O)NC(=O)[C@H](CC(C)C)NC(=O)[C@@H](NC(=O)[C@H](CCC(N)=O)NC(=O)[C@@H]1CCCN1C(=O)[C@H](CC(C)C)NC(=O)[C@H](Cc1ccccc1)NC(=O)[C@H](CC(N)=O)NC(=O)[C@H](C)NC(=O)[C@H](C)NC(=O)[C@H](CC(C)C)NC(=O)CNC(=O)[C@H](C)NC(=O)[C@@H](NC(=O)[C@@H](N)CC(C)C)[C@@H](C)CC)[C@@H](C)CC)C(=O)N[C@@H](C)C(=O)N[C@@H](CCCNC(=N)N)C(=O)N[C@@H](CCCCN)C(=O)N[C@@H](CS)C(N)=O` [B1CTcu5C (Acm)] (H-LIAGLAANFLPQILC(Acm)KIARKC-NH2), the minimal inhibitory concentration (MIC) in test [2] worked out at 100 µg/mL (≈ 43 µM); in test [1], 50 µg/mL (≈ 21.5 µM).

Take LIAGLAANFLPQILCKIARK-NH2 [B1CTcu5-C]: the MIC in test [2] and in test [1] was 50 µg/mL each time.

Consider `CC[C@H](C)[C@@H]1NC(=O)[C@H](CCCCN)NC(=O)[C@@H](NC(=O)[C@H](CC(C)C)NC(=O)[C@@H](NC(=O)[C@H](CCC(N)=O)NC(=O)[C@@H]2CCCN2C(=O)[C@H](CC(C)C)NC(=O)[C@H](Cc2ccccc2)NC(=O)[C@H](CC(N)=O)NC(=O)[C@H](C)NC(=O)[C@H](C)NC(=O)[C@H](CC(C)C)NC(=O)CNC(=O)[C@H](C)NC(=O)[C@@H](NC(=O)[C@@H](N)Cc2c[nH]c3ccccc23)[C@@H](C)CC)[C@@H](C)CC)CSSC[C@@H](C(N)=O)NC(=O)[C@H](CCCCN)NC(=O)[C@H](CCCNC(=N)N)NC(=O)[C@H](C)NC1=O` [B1CTcu5W] (H-WIAGLAANFLPQILCKIARKC-NH2; disulfide 15-21), for which the MIC came to 50 µg/mL (≈ 21.5 µM) in test [2] and 25 µg/mL (≈ 10.7 µM) in test [1].

Consider `CC[C@H](C)[C@@H]1NC(=O)[C@H](CCCCN)NC(=O)[C@@H](NC(=O)[C@H](CC(C)C)NC(=O)[C@@H](NC(=O)[C@H](CCC(N)=O)NC(=O)[C@@H]2CCCN2C(=O)[C@H](CC(C)C)NC(=O)[C@H](Cc2ccccc2)NC(=O)[C@H](CC(N)=O)NC(=O)[C@H](C)NC(=O)[C@H](C)NC(=O)[C@@H](N)CC(C)C)[C@@H](C)CC)CSSC[C@@H](C(N)=O)NC(=O)[C@H](CCCCN)NC(=O)[C@H](CCCNC(=N)N)NC(=O)[C@H](C)NC1=O` [B1CTcu5-LIAG] (H-LAANFLPQILCKIARKC-NH2; disulfide 11-17), for which the MIC in test [2] was 100 µg/mL (≈ 52.6 µM); in test [1], 50 µg/mL (≈ 26.3 µM).

In the case of `CC[C@H](C)[C@H](NC(=O)[C@H](CCCCN)NC(=O)[C@H](CS)NC(=O)[C@H](CC(C)C)NC(=O)[C@@H](NC(=O)[C@H](CCC(N)=O)NC(=O)[C@@H]1CCCN1C(=O)[C@H](CC(C)C)NC(=O)[C@H](Cc1ccccc1)NC(=O)[C@H](CC(N)=O)NC(=O)[C@H](C)NC(=O)[C@H](C)NC(=O)[C@H](CC(C)C)NC(=O)CNC(=O)[C@H](C)NC(=O)[C@@H](NC(=O)[C@@H](N)CC(C)C)[C@@H](C)CC)[C@@H](C)CC)C(=O)N[C@@H](C)C(=O)N[C@@H](CCCNC(=N)N)C(=O)N[C@@H](CCCCN)C(=O)N[C@@H](CS)C(N)=O` [Linear B1CTcu5] (H-LIAGLAANFLPQILCKIARKC-NH2), the MIC in test [2] was 100 µg/mL (≈ 44.3 µM); in test [1], above 100 µg/mL.

As to `CC[C@H](C)[C@@H]1NC(=O)[C@H](CCCCN)NC(=O)[C@@H](NC(=O)[C@H](CC(C)C)NC(=O)[C@@H](NC(=O)[C@H](CCC(N)=O)NC(=O)[C@@H]2CCCN2C(=O)[C@H](CC(C)C)NC(=O)[C@H](Cc2ccccc2)NC(=O)[C@H](CC(N)=O)NC(=O)[C@H](C)NC(=O)[C@H](C)NC(=O)[C@H](CC(C)C)NC(=O)CNC(=O)[C@H](C)NC(=O)[C@@H](NC(=O)[C@@H](N)CC(C)C)[C@@H](C)CC)[C@@H](C)CC)CSSC[C@@H](C(N)=O)NC(=O)[C@H](CCCCN)NC(=O)[C@H](CCCNC(=N)N)NC(=O)[C@H](C)NC1=O` [Cyclic B1CTcu5] (H-LIAGLAANFLPQILCKIARKC-NH2; disulfide 15-21), the MIC was 100 µg/mL (≈ 44.4 µM) in test [2] and above 100 µg/mL in test [1].

In turn, `CC[C@H](C)[C@H](N)C(=O)N[C@@H](C)C(=O)NCC(=O)N[C@@H](CC(C)C)C(=O)N[C@@H](C)C(=O)N[C@@H](C)C(=O)N[C@@H](CC(N)=O)C(=O)N[C@@H](Cc1ccccc1)C(=O)N[C@@H](CC(C)C)C(=O)N1CCC[C@H]1C(=O)N[C@@H](CCC(N)=O)C(=O)N[C@H](C(=O)N[C@@H](CC(C)C)C(=O)N[C@H]1CSSC[C@@H](C(N)=O)NC(=O)[C@H](CCCCN)NC(=O)[C@H](CCCNC(=N)N)NC(=O)[C@H](C)NC(=O)[C@H]([C@@H](C)CC)NC(=O)[C@H](CCCCN)NC1=O)[C@@H](C)CC` [B1CTcu5-L] (H-IAGLAANFLPQILCKIARKC-NH2; disulfide 14-20) gave an MIC in test [1] above 100 µg/mL.
